Here are results for 102 compounds from PubChem BioAssay AID1625 (Sanford-Burnham Center for Chemical Genomics, 2009).

“And” between values parts separate entries of the source, which are not always exact repeats. Equal entries are not always repeated. This is one part of the list. Shown are side measurements of this screen, not its main read-out; they come without a call. Compounds called inactive in the main read-out are mostly missing here.

The assay is described as follows: up-regulation of insulin promoter-GFP reporter – imaging, high-content screening, mouse beta cells (AID 1625).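 Also: total cells summed across four imaged fields per well.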 The following applies: MIN6 insulin promoter-GFP reporter, measured here: cytotoxicity, nuclei count, at 5 µM.
Consider `COc1ccc(C)cc1NC(=O)CSc1nnc(COc2ccc(Cl)cc2)n1Cc1ccco1`, for which the cell count was 279 cells.
In turn, `COc1ccc(NC(=O)/C(C#N)=C\c2ccc(N3CCOCC3)o2)cc1` had a cell count of 1600 cells.
The compound `O=C(CSc1nnc(Cn2nnc3ccccc32)o1)N(Cc1ccc(F)cc1)c1ccccc1` displayed a cell count of 287 cells.
For `Nc1c(C(=O)Nc2nc3ccccc3s2)sc2nc(-c3cccs3)ccc12`, the cell count came to 1140 cells.
With `CC(Sc1ccccc1)C(=O)NN=C1CCCCCC1` (configuration not stated) the figure was 1310 cells; with `CC(C)Cn1c(SCC(=O)N2CCc3ccccc3C2)nc2cc(Cl)ccc2c1=O`, 265 cells.
Take `CC(C)Oc1ccccc1C1CC(=O)Nc2c1c(=O)n(C)c(=O)n2C` (configuration not stated): the cell count is 402 cells.
The figure for `CCOC(=O)N1CCC(NC(=O)CS(=O)(=O)Cc2nc(-c3ccc(C)cc3)oc2C)CC1` is 348 cells; for `CC(=O)c1cccc(NC(=O)/C=C/c2ccc([N+](=O)[O-])s2)c1` it is 497 cells.
The figure for `CN(C)c1ccc(/C=C2\CCC/C(=C\c3ccccc3)C2=O)cc1` is 1420 cells.
Compound `COc1cccc2sc(Nc3nc(-c4ccccn4)cs3)nc12` came in with a cell count of 483 cells.
`CCCCn1c(=O)[nH]c2nc3cc(N)ccc3nc2c1=O` displayed a cell count of 1560 cells.
In turn, `Cc1cc(C)cc(N=Cc2[nH]c3ccc(Br)c(Cl)c3c2O)c1` had a cell count of 1370 cells.
Compound `Cc1ccc(SCC2(O)CCN(S(=O)(=O)c3ccc(Cl)cc3)CC2)cc1` gave a cell count of 464 cells.
On to `C=CCN(CC=C)S(=O)(=O)c1ccc(NC(=S)NC(=O)c2ccc(-c3ccccc3)cc2)cc1`, for which the cell count was determined as 445 cells.
As for `CCN1/C(=C/c2ccc3cc(C)ccc3[n+]2CC)Sc2cc(C)c(C)cc21`, the cell count is 301 cells.
The compound `CC(C)=C1C2CCC1C1C(=O)N(c3nc(-c4ccc(F)cc4)c(C)s3)C(=O)C21` (configuration not stated) gave a cell count of 470 cells.
The figure for `Cc1ccc(C(=O)C[n+]2cc(-c3ccccc3)n3c2CCCCC3)cc1` is 320 cells and 271 cells; for `CC(C)(CNS(=O)(=O)c1ccc(Cl)cc1)N1CCCCC1` it is 1010 cells; for `O=[N+]([O-])c1ccc(N/N=C/c2sc(N3CCOCC3)nc2-c2ccccc2)c(S(=O)(=O)Nc2ccccc2Cl)c1` it is 931 cells.
On to `O=C(c1ccc2c(c1)OCO2)N1CCCC1`, for which the cell count amounted to 1490 cells.
Turning to `CCOC(=O)c1c(-c2ccc(C)cc2)csc1NC(=O)/C(C#N)=C/c1ccc(O)c(OC)c1`, the cell count was 707 cells.
With `COc1ccc(-n2c(C)cc(C(=O)CSc3nnc(-c4cccs4)o3)c2C)cc1`, the cell count is 378 cells.
Regarding `CC[C@]1(O)CC2CN(CCc3c([nH]c4ccccc34)[C@@](C(=O)OC)(c3cc4c(cc3OC)N(C=O)[C@H]3[C@@](O)(C(=O)OC)[C@H](OC(C)=O)[C@]5(CC)C=CCN6CC[C@]43[C@@H]65)C2)C1` (some centres not stated), the cell count was found to be 349 cells.
On to `Cc1nn(-c2ccccc2)c(C)c1C(=O)OCC(=O)c1c(N)n(CC(C)C)c(=O)n(C)c1=O`, for which the cell count was 312 cells.
`O=C(N/N=C/c1cc2c3c(c1O)CCCN3CCC2)c1ccccc1O` showed a cell count of 453 cells.
The figure for `O=C(NCc1ccco1)C1CCN(S(=O)(=O)N2CCC3(CC2)OCCO3)CC1` is 430 cells; for `Cc1ccc(NC(=O)CCn2cccc2)cc1Cl` it is 1420 cells; for `Cc1ccc(C(=O)NN2C(=O)/C(=C/c3cn(C)c4ccccc34)SC2=S)cc1` it is 1170 cells.
The compound `CC1CCCCC1NC(=O)C1CCCN1S(=O)(=O)c1cccc2nsnc12` (configuration not stated) came in with a cell count of 467 cells.
`Nc1c(C(=O)C2CC2)sc2nc(-c3ccccc3)cc(C(F)(F)F)c12` displayed a cell count of 1260 cells.
The figure for `Cc1cc(S(=O)(=O)NC2CCCCC2)c(C)s1` is 1300 cells; for `COc1nc(OC)nc(N2CCC(C(=O)NCc3cccs3)CC2)n1` it is 1240 cells.
With `CCCCCCN(C(=O)CCCCCN1C(=O)NC(c2ccc(-c3ccccc3)cc2)C(C(=O)OCc2ccccc2)=C1C)C(C(=O)NCCCC)c1ccc(OCC(=O)OC)c(C(=O)OC)c1` (configuration not stated), the cell count came out at 444 cells.
`CN1/C(=C\C=C(/C#N)C(=O)Nc2ccccc2F)C(C)(C)c2ccccc21` had a cell count of 1260 cells.
`O=C(Nc1cnn(Cc2ccc(F)cc2)c1)c1cc(-c2cccs2)on1` registered a cell count of 243 cells.
`Cc1nc(NC(C)c2ccccc2)c2oc3ccccc3c2n1` (configuration not stated) showed a cell count of 321 cells.
With `O=C(Cn1ncn2c(cc3ccccc32)c1=O)NCc1ccco1` the figure was 1270 cells; with `Nc1ncnc(Nc2cc(Cl)cc(Cl)c2)c1[N+](=O)[O-]`, 394 cells.
`COc1ccc2nc(SCC(=O)Nc3ccc(S(=O)(=O)N4CCCC4)cc3)c(C#N)cc2c1` had a cell count of 977 cells.
The figure for `N#C/C(=C/c1ccc(N2CCOCC2)o1)C(=O)Nc1ccccc1` is 1510 cells; for `CCOCCN1CCN(c2c(CC)c(C)nc3cc(-c4cc(OC)cc(OC)c4)nn23)CC1` it is 446 cells.
With `COC(=O)C1CCCN1S(=O)(=O)c1ccc2ccccc2c1` (configuration not stated) the figure was 487 cells; with `O=C1C(Cl)=C(NCCN2CCCCC2)C(=O)c2ccccc21`, 497 cells.
`N#C/C(=C\N1CCN(Cc2ccc3c(c2)OCO3)CC1)c1nc2ccccc2s1`: the cell count was 1200 cells.
With `CCN(CC)c1ccc2cc(C#N)c(=O)oc2c1`, the cell count came to 1430 cells.
As for `COc1ccc(NC(=O)N2CCN(c3nc(-c4cccc(OC)c4)cs3)CC2)cc1`, the cell count came out at 481 cells.
With `Cc1ccc(-c2nc(C(Cl)Cl)c3ccccc3n2)cc1`, the cell count is 473 cells.
Regarding `Cc1cc(C)c2nc(NNC(=O)c3cc(-c4cccs4)nc4ccccc34)sc2c1`, the cell count is 1180 cells.
Compound `Cc1ccc(-c2cc(N)n(-c3ccccc3)n2)cc1` had a cell count of 1290 cells.
As for `COC(=O)c1cc2c(-c3ccccc3)c(C)c3ccccn3c-2c1C(=O)OC`, the cell count came to 955 cells.
The compound `O=[N+]([O-])c1ccc(N/N=C/c2cn(Cc3ccc(F)cc3)c3ccccc23)nc1` had a cell count of 1260 cells.
The figure for `N#C/C(=C/c1ccc(N2CCCCCC2)o1)c1ccc(Cl)cc1` is 1010 cells; for `Nc1c(Cl)ncnc1N/N=C/c1ccccn1` it is 355 cells; for `CN(C)c1ccc(/C=C2\SC(=O)N(CCc3nnc(N)s3)C2=O)cc1` it is 906 cells.
For `CCN(CC)c1ccc(/C=C(\C#N)c2nc(-c3cccs3)c(NC(C)=O)s2)cc1`, the cell count was found to be 1190 cells.
As for `O=c1c2cccc3c(N4CCOCC4)ccc(c32)c2nc3ccccc3n12`, the cell count was determined as 757 cells.
The compound `CC1CC(C)CN(C(=O)c2cccc3c2-c2ccccc2C3=O)C1` (configuration not stated) had a cell count of 980 cells.
For the compound `COc1ccc(C(=O)N2CCN(c3ccc([N+](=O)[O-])c(NCCc4ccc(OC)c(OC)c4)c3)CC2)cc1`, the cell count worked out at 331 cells.
As to `CCN(CC)c1ccc(/C=N/NC(=O)c2cnccn2)c(O)c1`, the cell count amounted to 463 cells.
On to `CC[n+]1c(/C=C2\C=C(C)CC(C)C2)sc2ccccc21` (configuration not stated), for which the cell count was 352 cells.
The figure for `COc1ccc(-c2c[n+]3c(n2-c2ccccc2)CCCCC3)cc1` is 449 cells.
`O=S1(=O)c2cccc3cccc(c23)N1Cc1nnc(-c2ccccc2Br)o1` came in with a cell count of 497 cells.
As for `NC(N)=N/N=C/c1c(Cl)cccc1Cl`, the cell count stood at 340 cells.
Consider `CCOc1cccc(C2c3c(oc4cc(C)c(C)cc4c3=O)C(=O)N2CCCN(C)C)c1` (configuration not stated), for which the cell count turned out to be 230 cells.
`CCC(C)N1C(=O)/C(=C/c2c(NCCCOC(C)C)nc3c(C)cccn3c2=O)SC1=S` (configuration not stated) gave a cell count of 1560 cells.
`O=[N+]([O-])c1ccc(N=Nc2c(Cl)cc(O)cc2Cl)cc1` gave a cell count of 237 cells.
`CC(C)CC(NC(=O)C1CCC(C)CC1)C(=O)NCc1cccnc1` (configuration not stated) had a cell count of 450 cells.
With `Cc1ccc(NC(=O)/C=C/c2ccc([N+](=O)[O-])s2)c(C)c1`, the cell count came to 854 cells.
The figure for `COc1cc2c3nnc(-c4ccc(F)cc4)c-3cn(Cc3ccc(F)cc3)c2cc1OC` is 648 cells; for `CCN1/C(=C\C=C(C(C)=O)C(C)=O)Sc2ccccc21` it is 1000 cells; for `O=C1C(Nc2ccccc2)=C/C(=N/S(=O)(=O)c2cccs2)c2ccccc21` it is 334 cells.
Take `Cc1cc2oc(=O)cc(Cn3ncc(Cl)c(Cl)c3=O)c2cc1Cl`: the cell count was found to be 332 cells.
On to `O=C(Nc1ccc2c(c1)OCO2)c1ccc2c(c1)OCO2`, for which the cell count amounted to 369 cells.
As to `CCCCn1c(=N)n(CC(O)COc2ccccc2)c2ccccc21` (configuration not stated), the cell count is 435 cells.
Turning to `CCOCCCNc1nc2c(C)cccn2c(=O)c1/C=C1\SC(=S)N(C(C)CC)C1=O` (configuration not stated), the cell count stood at 1290 cells.
The figure for `CCC(=Nc1ccc(Cc2ccncc2)cc1)c1c(O)n(C)c(=O)n(C)c1=O` is 230 cells; for `CCCCCCCn1c2c(c(=N)c3ccccc31)CCC2` it is 178 cells; for `COC(=O)C1=NNCC12CC(=O)N(c1ccc(Br)cc1)C2=O` (configuration not stated) it is 393 cells.
`CN(C)c1nc(=Nc2cccc(Cl)c2)ss1` showed a cell count of 471 cells.
For the compound `CCOC(=O)/C(=C\C=C1/Sc2cc(OCC)c(OCC)cc2N1CC)C(C)=O`, the cell count worked out at 1100 cells.
The figure for `O=C(O)CCCCCN1C(=O)/C(=C\c2ccc(-c3ccc(Cl)cc3)o2)SC1=S` is 1080 cells; for `Cc1ccc(C)c(N2CCN(C(c3ccc(N(C)C)cc3)c3nnnn3C(C)(C)C)CC2)c1` (configuration not stated) it is 319 cells.
Regarding `Cc1cc(C)n(C(=O)CCC2COc3ccccc3O2)n1` (configuration not stated), the cell count stood at 1300 cells.
With `CC(=O)c1c(N2CCOCC2)[nH]c(-c2ccccc2)nc1=S` the figure was 1290 cells; with `CC(C)NC(=O)N1CCN(c2ccncc2S(=O)(=O)N2CCOCC2)CC1`, 1310 cells; with `COC(=O)c1cc(Cl)c(N)cc1OC`, 403 cells.
Consider `Oc1ccc(Nc2nc(N3CCCC3)c3ccccc3n2)cc1`, for which the cell count is 365 cells.
The figure for `CN(C)S(=O)(=O)Oc1cccc(C(=O)Nc2ccc([N+](=O)[O-])cc2)c1` is 938 cells; for `CCN(CC(=O)NCCc1ccccc1)S(=O)(=O)c1ccc(C)cc1` it is 411 cells; for `CCN1CCS/C1=C\C=C\C1=[N+](CC)CCS1` it is 383 cells.
In the case of `O=C(NCCN1CCCC1)C1(S(=O)(=O)c2ccc(Cl)cc2)CC1`, the cell count came out at 1570 cells.
The figure for `CC(C)/C=C1\CC/C(=C\c2ccc(N(C)C)cc2)C1=O` is 1360 cells.
`O=C(Cc1nc(-c2ccc([N+](=O)[O-])cc2)cs1)Nc1ccccc1` registered a cell count of 1240 cells.
For `O=C(Nc1ccccc1Cl)/C(Cl)=C(\Cl)S(=O)c1ccccc1` (configuration not stated), the cell count is 365 cells.
The figure for `COc1cc(/C=N/Nc2nc(Nc3ccc(C)cc3)nc(-n3nc(C)cc3C)n2)cc(OC)c1OC` is 487 cells.
With `CCCC1CC(C)(c2csc(Nc3ccc(OCC)cc3)n2)OC1=O` (configuration not stated) the figure was 432 cells; with `O=C(Nc1nnc(-c2ccc3c(c2)CCCC3)o1)C1COc2ccccc2O1` (configuration not stated), 356 cells.
The compound `CCN1C(=O)/C(=C/c2ccc(N3CCCC3)cc2)NC1=S` registered a cell count of 1030 cells.
Regarding `CCOC(=O)[C@@H]1C(c2c(OC)cc(OC)cc2OC)=NO[C@@H]1C(=O)OCC`, the cell count turned out to be 412 cells.
`C/C(CC(=O)Nc1c(C)cc(C)cc1C)=N\NC(=O)OC(C)(C)C` had a cell count of 327 cells.
The figure for `CCCC(=O)N1c2ccccc2C(=C2SC(C(=O)OC)=C(C(=O)OC)S2)C(=S)C1(C)C` is 479 cells.
